The source of these data is ChEMBL document CHEMBL4888484, “Replenishing the malaria drug discovery pipeline: Screening and hit evaluation of the MMV Hit Generation Library 1 (HGL1) against asexual blood stage Plasmodium falciparum ,using a nano luciferase reporter read-out” (2022).

The campaign covered roughly 150,000 compounds. About 540 (0.36%) showed an effect of 50% or more. The list shows a part of the results.

This assay concerns Plasmodium falciparum. The assay can be described thus: Primary screen in NF54 nanoGlo assay, in single point, at 2uM, 72h; a lower Z score goes with more inhibition. It is filed as functional, Erythrocyte. The following applies: timepoint 72 hour.
Regarding `Cc1cc(N2CCOC[C@@H](O)C2)nc(Nc2cccc(O)c2)n1`, the “% Inhibition” value is on record as -4% and the Z score is 0.39.

On to `O=C(CN1CCOCC1)N1CC[C@@]2(CCCN(C3CCCCC3)C2=O)C1`, for which the “% Inhibition” value is 4% and the Z score was -0.76.

With `CCOC(=O)c1nnsc1Nc1ccc(F)cc1`, the “% Inhibition” value came to 11% and the Z score was -1.33.

For `COc1ccc(N2CCN(C(=O)c3[nH]nc4c3CCC4)CC2)cc1`, the “% Inhibition” value was found to be 9% and the Z score is -1.01.

Take `COc1ccc(C(C)CN2CCCCC2CS(N)(=O)=O)cc1` (stereo unspecified): the “% Inhibition” value is 0% and the Z score was -0.03.

As for `CC(C)CNC(=O)c1nc(-c2ccnc(N3CCCCCC3)c2)no1`, the “% Inhibition” value was -3% and the Z score was found to be 0.43.

`Cc1cc(C(=O)NC[C@H]2CCCN(C(=O)c3cccc(O)n3)C2)c(C)o1`: the “% Inhibition” value is -11% and the Z score is given as 1.87.

Turning to `Fc1cccc(-c2nc3n(n2)[C@@H](C(Cl)(Cl)Cl)Nc2ccccc2-3)c1`, the “% Inhibition” value is listed as 5% and the Z score is -0.67.

For `CN(C(=O)Cc1ccc2c(c1)CCCO2)c1ncccc1F`, the “% Inhibition” value amounted to 2% and the Z score is reported as -0.3.

`CCc1csc(CNS(=O)(=O)N2CCOCC2)n1`: the “% Inhibition” value is given as 1% and the Z score is -0.16.

On to `CN(Cc1ccc(F)cc1)c1ccc(-c2nc(C3CC3)no2)cn1`, for which the “% Inhibition” value is listed as -5% and the Z score is listed as 0.94.

Consider `Cn1cc(-c2nnc(N3CCOCC3)[nH]2)cn1`, for which the “% Inhibition” value is on record as -10% and the Z score is on record as 1.62.

For `CCC(NC(=O)NC(C)Cc1ccsc1)c1nc(C)cs1` (stereo unspecified), the “% Inhibition” value is -14% and the Z score is recorded as 2.19.

For `CN(Cc1ccn(C)n1)C(=O)N[C@@H]1CCCOC1`, the “% Inhibition” value is recorded as 10% and the Z score was -0.99.

For `COc1ccc(N(Cc2ccc(Cl)c(Cl)c2)c2snnc2C)cc1`, the “% Inhibition” value is given as -23% and the Z score was 3.01.

Consider `C[C@H](NC(=O)c1cc2ccccc2cc1O)c1cccs1`, for which the “% Inhibition” value was -8% and the Z score was 1.28.

Take `COC(=O)[C@H](C)NC(=O)COc1ccccc1`: the “% Inhibition” value is -8% and the Z score was determined as 1.3.

Regarding `CCOC(=O)c1c(-c2ccc(Cl)cc2)nn2c1NCN(Cc1ccccc1Cl)C2`, the “% Inhibition” value was -9% and the Z score was 1.43.

For the molecule `CCn1c(=O)n(Cc2noc(C3CC3)n2)c2ccccc21`, the “% Inhibition” value was determined as 10% and the Z score is listed as -1.12.

Turning to `O=C(NC[C@@H]1C=CCC1)N1CCOC2(CCS(=O)(=O)CC2)C1`, the “% Inhibition” value was -6% and the Z score is 0.69.

In the case of `COCCN1C[C@]2(CCCN(C(=O)c3ccc(O)cc3)C2)CCC1=O`, the “% Inhibition” value was -15% and the Z score is 2.4.

In the case of `Cn1c(CN2CCCC2)nnc1C1CCN(C(=O)C2CCCCCC2)CC1`, the “% Inhibition” value is recorded as -20% and the Z score amounted to 2.55.

On to `Cc1ccc(CNCc2cccnc2)s1`, for which the “% Inhibition” value was -12% and the Z score worked out at 1.76.

With `Cn1ncc(Oc2ccc(F)cc2F)c(Nc2cccc(C(=O)NCc3cccnc3)c2)c1=O`, the “% Inhibition” value was -5% and the Z score is 0.54.

For `COCCC(=O)Nc1ccc(Br)c(C)n1`, the “% Inhibition” value is -2% and the Z score is 0.31.

In the case of `Cc1ccccc1NC(=O)N1CCN(CCn2cccn2)CC1`, the “% Inhibition” value is listed as -9% and the Z score is recorded as 1.71.

As for `COC[C@@H]1CN(C(=O)c2ccc(C)c(F)c2)C[C@H]1c1ccccn1`, the “% Inhibition” value was -21% and the Z score is reported as 3.59.

In the case of `CC1CCN(C(=O)C(=O)Nc2ccc(C#N)cc2)C(c2ccco2)C1` (stereo unspecified), the “% Inhibition” value was determined as 0% and the Z score worked out at 0.06.

As to `CN1CCO[C@@H](C(=O)NCCN2CCN(c3ccccc3F)CC2)[C@@H]1c1ccccc1`, the “% Inhibition” value is -6% and the Z score was found to be 0.77.

Regarding `CN1C[C@H]2CN(C(=O)Cc3cccc(Cl)c3)C[C@@]2(C(=O)N2CCCC2)C1`, the “% Inhibition” value is -6% and the Z score is given as 0.82.

On to `Cc1oc(C)c(C(=O)N[C@@H](C)c2ccccn2)c1C`, for which the “% Inhibition” value was -9% and the Z score turned out to be 1.

With `O=C1NC2(CCC2)C(=O)N1CC1CCCCC1`, the “% Inhibition” value stood at 4% and the Z score is listed as -0.45.

On to `COc1ccc(OC)c(NC(=O)c2sc(Nc3ccc(F)cc3)nc2C)c1`, for which the “% Inhibition” value is on record as -11% and the Z score is 1.43.

Consider `CNC(=O)N1CCc2cn(C)c3cccc(c23)C1`, for which the “% Inhibition” value is recorded as -10% and the Z score is listed as 1.02.

`CC(C)N1C(=O)CN(CN(C)Cc2ccc(Cl)cc2)C1=O`: the “% Inhibition” value is on record as -11% and the Z score stood at 2.03.

In the case of `O=C(c1ccc(Cl)c(F)c1)N1CC[C@H]2[C@H](CCC(=O)N2CCCCO)C1`, the “% Inhibition” value is 1% and the Z score was -0.11.

`Cc1cc(C(=O)N2CCN(CCN3C(=O)NC(C)(C)C3=O)CC2)on1`: the “% Inhibition” value is listed as -8% and the Z score was found to be 1.

For `O=C([C@H]1CCCC12CC2)N1CCC(c2nc(C(F)(F)F)cs2)CC1`, the “% Inhibition” value was 4% and the Z score is -0.43.

In the case of `CCOc1ccccc1CN1CCN(Cc2c[nH]c3nccnc23)[C@@H](C)C1`, the “% Inhibition” value is recorded as -4% and the Z score was 0.77.

Take `COc1ccccc1[C@@H]1C[C@H]1C(=O)N(C)Cc1cc(F)cc(F)c1`: the “% Inhibition” value was -11% and the Z score came out at 0.96.

On to `Cc1cnc(CNC(=O)c2ccc(Cl)cc2O)o1`, for which the “% Inhibition” value is recorded as 8% and the Z score was -1.18.

Turning to `O=C(CC1CC1)N1CCC[C@@H]1CCc1noc(-c2ccccn2)n1`, the “% Inhibition” value was -23% and the Z score was 3.78.

Take `CCOC(=O)c1c(NC(=O)COC[C@H]2CCCO2)ccn1C`: the “% Inhibition” value is -13% and the Z score is recorded as 2.47.

The term % Inhibition denotes the change of the read-out against control, counted positive when it falls.
